Results: PubChem BioAssay AID1240 (Sanford-Burnham Center for Chemical Genomics, 2008)
Screen size: about 50,000 compounds; about 800 (1.6%) showed an effect of 50% or more. This is one part of the list.

What follows are molecules tested against Bcl-2-like protein 10 (Homo sapiens) (UniProt Q9HD36) (assay: Phenotype converters, Bcl-B/TR3 peptide binding displacement, primary biochemical FP (AID 1240;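 also: 0% = Bcl-B with tracer peptide and DMSO and 100% = tracer peptide lacking Bcl-B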)). Settings: GST-Bcl-B / FITC-TR3 peptide fluorescence polarization; stronger effect = higher value; compound at 3.75 mg/L.
Sequence of UniProt Q9HD36 (Q9HD36 whole entry, looked up): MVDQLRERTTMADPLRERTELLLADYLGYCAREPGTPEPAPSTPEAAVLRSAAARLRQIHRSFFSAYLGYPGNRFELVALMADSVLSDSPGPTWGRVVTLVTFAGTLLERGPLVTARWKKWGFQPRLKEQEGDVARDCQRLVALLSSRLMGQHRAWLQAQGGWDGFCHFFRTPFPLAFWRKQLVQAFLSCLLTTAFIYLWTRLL
`CN1CCN(C(=O)c2cc3nc(-c4cccs4)cc(C(F)(F)F)n3n2)CC1` gave a displacement of 0.5%.
Molecule `CC(C)NC(=O)c1c(NC(=O)c2cccs2)sc2c1CCCC2` has a displacement of -3.3%.
In the case of `COc1ccc(C2/C(=C(/O)c3ccccc3)C(=O)C(=O)N2c2cccc(C(F)(F)F)c2)cc1OC` (configuration not stated), the displacement is reported as 3.4%.
Work on `Cc1onc(-c2ccccc2Cl)c1C(=O)Nc1sc2c(c1C(N)=O)CCCC2` yielded a displacement of -12.9%.
For `O=C(N/N=C/c1cccc(O)c1)c1cc(-c2ccccc2)n[nH]1`, the displacement was -19.3%.
For `COc1ccc(CC(=O)N2N=C(C)CC2(O)c2cccnc2)cc1OC` (configuration not stated), the displacement was -28.2%.
`COc1cccc(/C=C2/C(=O)ON=C2c2ccccc2)c1OC` showed a displacement of 16.3%.
For `O=C(O)c1nc2n(n1)C(C(F)(F)F)CC(c1cccs1)N2` (configuration not stated), the displacement was 3.3%.
Work on `O=S(=O)(c1ccc(NC(=S)Nc2ccc(F)cc2)cc1)N1CCc2ccccc21` yielded a displacement of -4.8%.
`CCOC(=O)c1c(N)sc(C)c1-c1ccc(CC(C)C)cc1` gave a displacement of -2.7%.
In the case of `OC(CNCC1CCCO1)Cn1c2ccc(Br)cc2c2cc(Br)ccc21` (configuration not stated), the displacement is reported as 5.4%.
For `COc1cc(C=C2C(=O)NC(=O)NC2=O)cc(I)c1OCc1ccc(Cl)cc1`, the displacement was 11.6%.
`CC(Sc1n[nH]c(=O)[nH]c1=O)C(=O)OCc1ccccc1` (configuration not stated) showed a displacement of -4.2%.
Work on `COc1ccc(-n2c(=O)c3c4c(sc3n3c(SCC(N)=O)nnc23)CCCC4)cc1` yielded a displacement of 0.7%.
For `CCOc1ccccc1OCCN(CC)CC`, the displacement was -3.2%.
For `CC1=CC(=O)C=C/C1=N\OS(=O)(=O)c1ccccc1`, the displacement was 25.4%.
With `COc1ccc(C(=O)/C=C/c2ccc(/C=C/C(=O)c3ccc(OC)cc3)cc2)cc1` the displacement was 19.1%.
With `COc1ccc(OC(C)C(=O)Nc2ccc(C)c(Cl)c2)cc1` (configuration not stated) the displacement was 10.5%.
In the case of `CC(=O)Oc1ccccc1N1C(=O)c2ccc(-c3nc4ccccc4c(=O)o3)cc2C1=O`, the displacement is reported as 13.1%.
`CCOc1cccc2sc(NC(=O)c3ccc(Br)cc3)nc12` gave a displacement of 9%.
Work on `Cc1c(NC(=O)C(C)C)cccc1-c1nc2ncccc2o1` yielded a displacement of 1.5%.
With `C(=Nc1ccc(-c2nnc(-c3ccccc3)o2)cc1)c1c2ccccc2cc2ccccc12` the displacement was 19.3%.
For `CCCCC(=O)Nc1ccc(C(=O)OCCC)cc1`, the displacement was -6%.
For `Cc1cc(C)nc(/N=C(/N)Nc2ccccc2O)n1`, the displacement was 5.3%.
`O=C1NC(=S)N/C1=C\c1ccccc1F` gave a displacement of 6.8%.
Work on `CC(C)(C)c1ccccc1OCC(=O)Nc1nccs1` yielded a displacement of -9.6%.
`COc1ccccc1C/C(N)=N/OC(=O)COc1ccc(C)cc1Br` gave a displacement of -7.8%.
`Cc1cc(Nc2ccccc2)nn1C(=O)c1ccc(Cl)cc1` was tested, and the displacement was -10.9%.
`COc1ccc(N2C(=O)CC(Sc3nccc(C)n3)C2=O)cc1` (configuration not stated) showed a displacement of 11.9%.
`N#C/C(=C(/O)CCCN1C(=O)c2ccccc2C1=O)c1nc2ccccc2[nH]1` showed a displacement of -6.8%.
Molecule `O=C1C(N2CCOCC2)=C/C(=N\S(=O)(=O)c2ccc(Cl)cc2)c2ccccc21` has a displacement of 1.6%.
Work on `CCCCn1c(O)c(C2=c3ccccc3=NC2=O)sc1=S` yielded a displacement of -5.3%.
Molecule `COc1cc(NC(=O)c2ccc(C(C)(C)C)cc2)c(OC)cc1NC(C)=O` has a displacement of 2.4%.
`COc1ccc(C(=O)N2c3c(C)cccc3C(Nc3ccccc3C)CC2C)cc1` (configuration not stated) gave a displacement of -6%.
`Cc1ccc(N2C(=O)CSC2c2ccc(Cl)cc2)cc1` (configuration not stated) gave a displacement of -0.4%.
`CCOC(=O)c1c(NC(=O)c2nn3c(c2Cl)NC(c2cccs2)CC3C(F)(F)F)sc2c1CCC2` (configuration not stated) gave a displacement of 10.5%.
`Cc1sc(-c2c(C#N)c(N)nc3c2CCCCC3)cc1[N+](=O)[O-]` was tested, and the displacement was -8.5%.
For `Cc1ccc(OCC(=O)Nc2c(C)cc(Br)cc2C)cc1C`, the displacement was 12.1%.
Work on `COc1ccc(O)c(C2NN=C(Cc3ccccc3)S2)c1` (configuration not stated) yielded a displacement of -10.6%.
With `COc1cccc(C(=O)Nc2cc(-c3nc4cc(Cl)cc(Cl)c4o3)ccc2C)c1` the displacement was 3.7%.
`COc1cc(/C=C2/C(=O)NC(=S)N(c3ccccc3)C2=O)ccc1OCc1ccc([N+](=O)[O-])cc1` showed a displacement of 4%.
In the case of `C=C(C)Cn1c(-c2cccc([N+](=O)[O-])c2)n[nH]c1=S`, the displacement is reported as -7.3%.
Molecule `CC(=O)c1cccc(N2C(=O)c3ccc(C(=O)c4ccc5c(c4)C(=O)N(c4cccc(C(C)=O)c4)C5=O)cc3C2=O)c1` has a displacement of 15%.
`OC(COCc1ccc2c(c1)OCO2)CN1CCC(Cc2ccccc2)CC1` (configuration not stated) gave a displacement of 0.1%.
For `COc1cccc(NC(=O)C2COc3ccccc3O2)c1` (configuration not stated), the displacement was -1.5%.
`CCOC(=O)c1c(C)n(C)c2c(C)cc(O)c(OC(=O)CC)c12` was tested, and the displacement was -8.7%.
`CCCCOc1ccc(N2C(=O)c3ccc4c5c(ccc(c35)C2=O)CC4)cc1` showed a displacement of -5.1%.
`Clc1ccc(-c2nc(N3CCOCC3)c3ccccc3n2)cc1` showed a displacement of -1%.
For `CC(=O)Nc1ccc(C(=O)N2CCN(c3cccc(Cl)c3)CC2)cc1`, the displacement was 9%.
Work on `O=C(COc1ccc(Br)cc1)Nc1ccc2c(c1)OCO2` yielded a displacement of -7.5%.
`CC(C)(C)c1ccc(Oc2c(C(F)(F)F)oc3cc(OCC(N)=O)ccc3c2=O)cc1` gave a displacement of -3.9%.
In the case of `O=C(Nc1ccc(-c2nc3ccccc3o2)cc1)c1cccs1`, the displacement is reported as -10.9%.
Molecule `CC(=O)c1cc(C(=O)Nc2ccc3ccccc3c2)c(C)o1` has a displacement of 11.9%.
`CCc1ccccc1NC(=O)COc1ccc(Br)cc1` gave a displacement of -6.8%.
For `Cc1onc(-c2c(F)cccc2Cl)c1C(=O)NCc1ccc(Cl)cc1`, the displacement was -6.9%.
With `C/C(=N\NC(=O)COc1ccccc1C)c1ccccc1` the displacement was 2.1%.
In the case of `Cc1ccc(C(=O)N2CCN(c3ccc([N+](=O)[O-])cc3)CC2)o1`, the displacement is reported as 13.6%.
With `COc1ccc(Cc2nc(-c3ccc(Cl)cc3)no2)cc1OC` the displacement was 1.1%.
Work on `O=c1[nH]c(=O)n(-c2ccccc2F)c(O)c1C=Nc1ccc2c(c1)OCO2` yielded a displacement of -1.3%.
`O=C(Nc1c(C(=O)Nc2cccc(Cl)c2)cnn1-c1ccccc1)c1ccccc1Cl` was tested, and the displacement was 83%.
`CN1C(C)(C)CC(NC(=O)CCC(=O)NC2CC(C)(C)N(C)C(C)(C)C2)CC1(C)C` gave a displacement of 0.7%.
In the case of `O=C(O)C1CCC(=O)N1C1c2ccccc2Oc2ccccc21` (configuration not stated), the displacement is reported as -11.5%.
For `Cc1[nH]c2ccccc2c1/C=N/NC(=O)c1cccc(Br)c1`, the displacement was 17.2%.
`COc1ccc(C2Nc3ccccc3C(=O)N2Cc2ccco2)cc1COc1ccc([N+](=O)[O-])c(C)c1` (configuration not stated) was tested, and the displacement was 3.3%.
Molecule `O=S(=O)(c1ccc(Br)cc1Br)N1CCN(c2ccccc2)CC1` has a displacement of 1.9%.
`COc1ccc(S(=O)(=O)Nc2c(C)cc(C)cc2C)cc1` gave a displacement of 1.1%.
Molecule `C/C(=N\Nc1nc(-c2ccc(C)cc2)nc2ccccc12)c1ccc([N+](=O)[O-])cc1` has a displacement of -1.5%.
With `COc1ccc(NC(=S)NCc2ccc(Cl)cc2)cc1` the displacement was 9%.
In the case of `CCC(=O)Nc1ccc(NC(=O)Cc2ccccc2)cc1`, the displacement is reported as 8.1%.
`CC1CCc2c(sc(NC(=O)c3cccc(F)c3)c2C#N)C1` (configuration not stated) gave a displacement of -6.5%.
In the case of `N/C(=N\OC(=O)COc1ccc2ccccc2c1)c1ccc(Cl)cc1`, the displacement is reported as 7%.
With `O=C(/C=C/c1ccco1)Nc1ccc(NC(=O)c2ccco2)cc1` the displacement was 10.5%.
Work on `CC(C)(C)c1ccc(S(=O)(=O)N/N=C/c2ccc3c(c2)OCO3)cc1` yielded a displacement of -7.4%.
In the case of `c1ccc(CNn2c(CN3CCOCC3)nc3ccccc32)cc1`, the displacement is reported as -2.8%.
In the case of `NC1=NC(=O)/C(=C/c2ccccc2OS(=O)(=O)c2ccc([N+](=O)[O-])cc2)S1`, the displacement is reported as -5.2%.
With `O=C(NCc1cccnc1)C(=O)Nc1ccc(Cl)c(C(F)(F)F)c1` the displacement was -8.3%.
With `CCCc1ccc(OCC(=O)Nc2cc(S(=O)(=O)CC)ccc2O)cc1` the displacement was 9.2%.
For `COC(=O)C1=C(O)/C(=C/c2ccc(OCC(=O)Nc3ccccc3OC)cc2)N=C1C`, the displacement was 30.1%.
`CC1=CC(C)(C)N(Cc2ccc([N+](=O)[O-])cc2)c2cc(C)ccc21` showed a displacement of 10%.
`O=C(/C=C/c1ccc([N+](=O)[O-])cc1)Nc1ccc(Cl)c(Cl)c1` gave a displacement of -5%.
`CCOc1ccccc1NC1=C(Cl)C(=O)N(c2ccc(C)cc2)C1=O` was tested, and the displacement was 13.7%.
Molecule `CC(=O)Nc1ccc(/C=C(/C#N)C(=O)NCc2ccco2)cc1` has a displacement of 9.4%.
`O=C(Nc1cccc([N+](=O)[O-])c1)c1ccc2c(c1)C(=O)N(N1C(=O)c3ccccc3C1=O)C2=O` showed a displacement of -1.8%.
For `C/C(=N\NC(=O)Cc1ccc(Cl)cc1)c1ccc(Cl)s1`, the displacement was 4.5%.
`CCN(C(=O)c1cc(OC)c(OC)c(OC)c1)c1ccccc1` gave a displacement of -1.9%.
In the case of `CCOC(=O)c1c(NC(=O)c2ccc(Cl)cc2)sc2ccccc12`, the displacement is reported as 39.1%.
For `Cc1ccc([N+](=O)[O-])cc1/C=C1/C=C(c2ccccc2)OC1=O`, the displacement was -1.9%.
`COC(=O)C1=C(C)N(C)C(C)=C(C(=O)OC)C1c1ccccc1` was tested, and the displacement was 7.7%.
With `O=C(c1ccco1)N1CCN(c2ccc([N+](=O)[O-])cc2Cl)CC1` the displacement was -0.7%.
In the case of `Cc1cc(C)n(-c2cc(N3CCOCC3)ncn2)n1`, the displacement is reported as -8.6%.
`CCOC(=O)/C(=C/Nc1c(C)n(C)n(-c2ccccc2)c1=O)[N+](=O)[O-]` showed a displacement of -6.8%.
`COc1cccc(-c2nc3sc4c(c3c(=O)[nH]2)CCCC4)c1O` showed a displacement of -17.7%.
Molecule `CSc1ccc(/C=C2\C(=O)NC(=O)N(c3ccc(Cl)cc3)C2=O)cc1` has a displacement of 1.6%.
`O=C1CC(N2CCN(c3ccccc3Cl)CC2)C(=O)N1c1ccc(Cl)cc1` (configuration not stated) was tested, and the displacement was 4.5%.
In the case of `O=C1OC(c2cccc(F)c2)=N/C1=C\c1ccc(F)cc1`, the displacement is reported as -2.2%.
`O=C(CN1CCOCC1)NCC1COc2ccccc2O1` (configuration not stated) showed a displacement of -15.8%.
`COc1cc(/C=C2\C(=O)NN(c3ccccc3)C2=O)ccc1OCc1ccccc1F` gave a displacement of 8.9%.
Molecule `CS(=O)(=O)N(CC(=O)NCCc1ccccc1)c1cc(Cl)cc(Cl)c1` has a displacement of 11.3%.
Work on `CC(C)(C)C(=O)Oc1ccc2c3c(c(=O)oc2c1)CCC3` yielded a displacement of 4.5%.
`O=C1NC(=Nc2cccnc2)S/C1=C\c1ccccc1Cl` was tested, and the displacement was 3%.
In the case of `CSCCC(NC(=O)c1ccccc1)C(=O)OCC(=O)Nc1cc(C)on1` (configuration not stated), the displacement is reported as 6.4%.
With `Cc1cc(OCC(=O)Nc2ccc(I)cc2Cl)cc(C)c1Cl` the displacement was -3.6%.
`Cc1cc(/C=N/NC(N)=O)c(C)n1C1CCCCC1` gave a displacement of 29.3%.
With `O=[N+]([O-])c1ccc(Cl)cc1NCCc1ccccc1` the displacement was 14.5%.
Molecule `CCOC(=O)C1CCN(C(=O)c2ccc(C#Cc3ccccc3)cc2)CC1` has a displacement of -1.7%.
Work on `Cc1nn(-c2ccccc2)c2c1C(c1cccc(O)c1)C(C#N)=C(N)O2` (configuration not stated) yielded a displacement of 3.7%.
`O=C(N/N=C/c1c(Cl)cccc1Cl)c1cc(-c2ccc(Br)cc2)n[nH]1` showed a displacement of -13.7%.
